Source: publication PMC10726135
The list shows a part of the results. At the low end of the ranking, values are background and their order means little. Measured with an extract: partners may take part in the binding.

The sequences below were run against T1, HNF4alpha2 (COS-7 nuclear extract) (UniProt P41235) (assay: protein-binding microarray). Settings: COS-7 nuclear extract on double-stranded Agilent 4x180k PBM; binding buffer, salt, pH and temperature not given; high values mean tight binding; double strand, one strand shown; sequences stand for … in …GCCTAGGGAGATTAGAGTATCGGTCGA.
T1 sequence: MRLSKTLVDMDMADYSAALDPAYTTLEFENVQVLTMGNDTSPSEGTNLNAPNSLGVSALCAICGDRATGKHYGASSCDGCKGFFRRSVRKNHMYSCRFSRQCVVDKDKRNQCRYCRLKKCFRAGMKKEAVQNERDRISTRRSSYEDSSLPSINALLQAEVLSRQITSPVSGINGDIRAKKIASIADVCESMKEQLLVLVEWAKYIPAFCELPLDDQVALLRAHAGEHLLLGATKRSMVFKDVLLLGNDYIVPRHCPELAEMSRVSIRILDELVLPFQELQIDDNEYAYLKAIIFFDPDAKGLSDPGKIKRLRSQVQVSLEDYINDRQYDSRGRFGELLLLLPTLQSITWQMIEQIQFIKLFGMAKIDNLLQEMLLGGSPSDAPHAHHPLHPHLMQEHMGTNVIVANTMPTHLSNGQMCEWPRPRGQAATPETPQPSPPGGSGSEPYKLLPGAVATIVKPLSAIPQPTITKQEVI

| Sequence | binding signal (log2 normalized intensity) |
| --- | --- |
| ATTCCCTCCAGCAGGGGATGCCCTTTGACC | 8.91 |
| TGTCGCTATCTTATCTGGGCCAGGTATTTG | 1.1 |
| CTTGTGGCTGGGTGATCTGGGAAACAGGCT | -1.11 |
| GGACTTTGGCCCTCAGCCCAATGTGGTAGG | 5.47 |
| CACCATTCCTGGCAGCCAGCTGGTTTGCCT | -0.903 |
| TTTTTTCTCTCCCCTTTTAATACAAGTATT | 1.63 |
| TAGGTTTGTGAGTCCAAAGGTCAGCCGGGG | 7.74 |
| AAGGAGAAGGCTCCCAAGGTATCCTCCTAG | -1.08 |
| TCCCTTCCCGGGGAGTCCTGGGCGTTGCTC | -0.443 |
| AGGGATTTCAGTGCCCTCATAAGAGACTTT | 1.84 |
| CAGCCCAGTGGTAATGGAGCTGAAACTATA | -1.02 |
| GCTCTTTACCCCTGCAAGGATTGATCAGCA | 1.64 |
| CAAACAAGAAAGTTGAGGTGAATACACAGC | -1.05 |
| CTTTATGACTTGGGTGCACCAATGATCAAA | 1.3 |
| AAGGAAGGAGGGAGGCAGGGAGACAACCTG | -1.04 |
| CTTCATTCCCGAGTGCCTTTAGAGGGCAAG | 2.12 |
| CTGGAAAGGGCTTCAGAGTCGATAGTCCAA | 1.18 |
| CATCAGATACCTACTCTGCTCTTCTCTCTG | -0.613 |
| AATTGTTCAACATGGTGACTCTAGTCAATG | 1.32 |
| TAGTGCCTGGATCTTGGAACAGGTCTCAGG | -0.0841 |
| GTGGACTTTGCCTGCCCATCCCGTGGACTC | 3.88 |
| CCCACCTTGTTATCTTGTCTCTTCTTGTAC | 1.98 |
| AATGCAGCCTTATCTTCCAGCCCTGTCTCT | -0.713 |
| ATCCCCGCTCCCCTCCCCCACCCGCGGTCC | 6.38 |
| CTCGGGGCCAGGTGGGCTGCTCCCAGTGCC | -1.04 |

| Sequence | binding signal (log2 normalized intensity) |
| --- | --- |
| GATCAGGCAAGTGGTCATGTAGGTGTCTCA | 0.912 |
| GAAGGTTATTAGTGATAAGCAGAGGATGGG | 0.397 |
| AACTGAGTTACGTAATGTGTCCCCACATCT | 2.27 |
| CCTGGTGGACCCAGCTGGTAAGTGCAAGGC | 0.0281 |
| AGAGAAGGGCTGAAGGTTAATTCGCTCATC | 0.389 |
| CAGGACTGCGTAACTTACAGTGCACTTTGA | 4.9 |
| TATCGCCCTTCTGTCAAGTCCAAAGTTCTT | 4.55 |
| CCTATCAGCTACTCATGCTTTCTTATCTGG | 1.17 |
| GACCGAGGGTTAAGCTCATGCTTTCATCTC | -1.12 |
| ATTTAGTAAGTTCAAGAAGACCTTTGCTCC | 5.89 |
| ACCCATCCCTTTGCAATAAAAGATTGCATC | 0.385 |
| TGAAGTAAATGCAGTTTGTCAAGTGCCCGG | 1.19 |
| ACTCTGACCCAGGAGCCTTCCGGAGGCTCT | -1.08 |
| CAAAGTTATCAAGTTGCTTAAATTCTTGTA | 0.487 |
| AAAAAATTCAAAGCAGAGGTGACCCTTGCA | 3.06 |
| CCACTCTGCCTTCAGCGGTGCATTTTTTTC | 1.12 |
| AGGGTATAGGATAAGGAATGAAGCAGAACC | -1.02 |
| GCTGCTACTTTAGCTGCCAGAGGTTCTTTC | 0.494 |
| AACTGGAGTAAAGGTCACTCTTGCTATGCA | 2.79 |
| CTTTCATCTTTGCGGTGAGCATTTGTTTAG | 1.46 |
| CTGGCTGACCTTTAGCCTGGCCATTTCTCA | 4.34 |
| AACATCAGGGTGCCAGCAGGTGGTCAGCCT | -1.24 |
| GGGTTACAGGTGGACAAACAGGCTGAACAT | -0.854 |
| GAAGACCAACAGGTGAAGACATGCTGGTGT | -0.696 |
| GATAAGCAGAAGGTCAGGTGAATCAACGAT | -0.985 |

| Sequence | binding signal (log2 normalized intensity) |
| --- | --- |
| AGGGCCCGAGGCCTTGAGCATACAAAACCC | -1.18 |
| GTGTCAACATGGACTTTGTTGTTTGCCTCT | 3.48 |
| TGATGCATCCTGAGGCAAAATTCCTCGCTA | -1.15 |
| GAAGTTGCCCGAGCTGCCCTTTATCTCCTC | 1.88 |
| GTTGCTTCAAAGGGCAAAAGGGCAAAACTG | 3.92 |
| GCTGGCGGGAGCATAGCAGCGAGGACAACC | -1.3 |
| CCTGTTTAAAGAATTTTTCCCCTAGTTACA | 1.72 |
| CCAGATGTTACCACCCAGACCAGTAACCTA | -1.1 |
| TGGACTTTGCACTAAAAGCCATGAGAAGGT | 4.84 |
| ACTGACCCAGGGAGAAAGGTCAGGGGCAGG | 1.02 |
| TATGGGTTAACAGAATGAACAGCTCTTCTT | 0.252 |
| GGTCAAAGGGTAAAGATTATGAACTAATTT | 1.41 |
| TAAGTCACTGGGCTGATGACCTTTGACTGA | 7.08 |
| TAGAGTCAATACTCCACAAGACCACAAGGT | -1.01 |
| TGCCTTGTGTACTCTATCCAGTAGAGGGCA | 2.17 |
| ATTGGGTACAATGTTCACTATTTGAACTTA | 3.35 |
| GTTTCCTGAGTTACAGATAAGCAGAAGGTC | 1.1 |
| ACCTGGACTTGAAGCCAGACTCTGCCATTT | -1.1 |
| AAACAACCCAGAGAATGCTAGACAAGGGAA | -1.28 |
| AGGTCAATGAAGCTCTTGCTGGTCAAGCTA | -1.15 |
| AAACTGTATTGCTCAATGTCAAACACACTG | -1.06 |
| TGCCCCTTCACATATTTTGAAAGAAAGAGA | 1.68 |
| TTCCCCTCCCTTCCACCTTTGCCCTCCAAA | 5.76 |
| ATCTGGATTTTCAGGTTCCCCAGTGAGGAT | 1.69 |
| CACAACTGGATGGTGTTTGATCTGATGTAC | 1.7 |

| Sequence | binding signal (log2 normalized intensity) |
| --- | --- |
| GGCAGGGGAGAACTTCCTCCTCCTTGGCTC | -1.13 |
| CATTCTCTAATCAGGTCGCTGCCTGCCCCT | 2.85 |
| TGCGCTGGCCTTGCTTTTCACAGTCGATCT | -1.14 |
| GGCAAGCCGACTTACAGGACAAAAGTAAAT | -1.15 |
| GGGGCAGGTAAGTACCAATATTTGTTAAGT | 1.08 |
| TTCCTCCAGCCTGTCGGAATTTGCCCTGTG | 4.24 |
| GGATGTCTTTTGTTCTAATGAGGCCACTCC | 0.797 |
| TATTCTATCAGTAGGTACGTTTGTGATACA | 1.47 |
| TTTGCCCTTTTTAATGTTTCATTAAGCAAG | 0.761 |
| ACCGGCCAAACTGGTTTCTCCGCTCGGGGA | -1.1 |
| AGCTTAAGCATACAGATTACATCTCCAGCT | -1.1 |
| GATAAGGAATGAGGAGTCAGAGCGTGTTTC | 0.046 |
| GACAAAGTGTGCACTTTGCACCTGGGCTGG | 4.51 |
| CCAAAGGAATCTACATAACAAACATTACTA | -1.04 |
| CAATTCGCATTTCTGCTTCTTCTCATTCTT | 0.808 |
| GCTTAAAACGACTGATTCTCAGGCATCTCT | -1.07 |
| CCCAGTTCAAAGGTTAAGACTTTGAATCAG | 3.31 |
| TAATCAGCAAGTTTTATATGAAAACAAAGG | 0.544 |
| GTTATCTCTTTTGTGATAGAATGAATGGAA | 1.84 |
| GTTGCCCAGCTATTAAATGGAATACTTGCC | -0.901 |
| GTTCGTGCTTCTTGGCCTCTTTGTTTACAC | 1.62 |
| GCTTCCAAGAATTTAAGAGAACTAGAGATA | -0.553 |
| TTTTTTTGTTGTTATCCATTTAAAAAGTAT | 1.19 |
| TTTTTCAGATCCCTCTGGTGCTGATGTGTT | 2.17 |
| ATTGCCCCCTAATGGTATTTATTTTAAACC | 2.17 |

| Sequence | binding signal (log2 normalized intensity) |
| --- | --- |
| GCTGGGGTTTTACCAGGCACGCATGGAATT | -0.636 |
| AGTTGCTCTGGAGTGCAGGTGGGAGGGGTG | -0.549 |
| CCCCGCCTTGGCCTCCCGGAGAGGCCCCGC | 2.49 |
| GTGGCCGCGAGCACCGCGCGCGCAAAGCGG | -1.23 |
| AAAGCAAGTTAAAACAGCAGAGCACGATGA | -1.18 |
| ACCAACCTGTCCAAAGGTCATCTGTCACTC | 5.7 |
| AATAAGCACGTTAGAGAAAAAGCCCAAGAA | -1.04 |
| TTTAACTTCTGGGGGCAAGGTACACCATCT | 3.1 |
| CCTTGCTAATAAATGATTCATTCAGCAAAT | -1.16 |
| GTCAGGGAAGACTGATAAGAAAACTAGCAA | -1.2 |
| CACCATATGTATGTGAAGCTTGCTGATTAC | 1.12 |
| ACCAGTCAGGCAAACAACAGGCATCAACTC | -1.08 |
| TTGTCCTTAGACAGTAACCCTTGAGCTCTG | 3.16 |
| AAAAGTGACCTTTGCTCCAGTTCCCAATAA | 5.9 |
| GATAACCGAGGCTGACAGCAGAGAGTTTTC | -1.16 |
| CTAGTGTACAGGTGACCTTTGGAATGAACC | 7.14 |
| AATTAATGTACCCCCGGAAACACGTCCTGT | 3.83 |
| GTAAATGTACTGTAAACCTAGGTAGTGGAC | 1.58 |
| TCACCAGGATGGGCCATGACCTTTACCCCC | 9.28 |
| CACAGGTAATAAGCAGTAGACTAAAACCCA | -1.17 |
| CAAATATTGAATGTGTTACACCTGTGTGTA | 2.1 |
| TTGCCCAGCTGTTCCGTGTTCCAGAGCCTC | -0.815 |
| ACCTAGGGGACATTCTTTAGAGGCTGGGTG | 0.43 |
| AGAGTTGAACCCTTGGGGCTTTTGCAATTT | 1.68 |
| GGTGTTCCTGAGTAAATCTCACATTCGTTA | 0.699 |

| Sequence | binding signal (log2 normalized intensity) |
| --- | --- |
| AACTAAGAACACAGTCATTTATTCACTTAT | -0.866 |
| GTTTTCAAACAATGAGAGGCAACATTCCCA | -0.709 |
| TGGGGACAGGGATTAAGTACCGCTCCTCTC | -1.11 |
| ATAACAGTGTAAGGACATTGCCCCCTATGT | 4.34 |
| TTTGTCACATTCCAGACTTTGTACAAGGGC | 2.73 |
| AAGCAGCAAACCAGATAAGACTATCTCATG | -1.14 |
| CTCCGACCCCACGGACTTAAATTGTGCTGT | 1.46 |
| GAACATTAACTCTCTGTGAGTGTGTTGGCA | 1.43 |
| AGTCTCCGAGGAACCCAGACTGCATTTTCA | -1.17 |
| GCTACAAAGATTGCATGAGATTTTGCTCAA | -1.09 |
| TCAGCTGCCACTGGAAGCTCTTCTGTGCCT | -1.09 |
| GCTGTCACTGGCTGCTGCTCAGGAGACCGA | -1.27 |
| TTTTGAATGACAGTGTCAGGACCTTGCTCC | 2.11 |
| GATAAAGCAGGTTGTACCTTGACCCAAGAA | 4.88 |
| GCCGACTGCCAGGAGGGGACTTCAAAGGCT | -1.38 |
| ACAAAGCCCATGCTGGACCCTGGGCTTAGT | 1.97 |
| AAGGGCAGCAGTAACCCCCCAGGAGCGAGT | 3.54 |
| AGGAGGAGCCAGTGAAGACTGAAAAGAGAT | -1.14 |
| AATCTTGATAATGCCCTGACCCTAGATGAG | 1.57 |
| GTATTGAGATAAGCAAGACTGCAGGGTCAT | 1.46 |
